Data published in the supplement of paper PMC12217912.
The list shows a part of the results. Sequences were assembled here from the parent chain. Values near 0.05 are background.

B1: TEV protease; numbered along this chain (parent)
chain: MGESLFKGPRDYNPISSSICHLTNESDGHTTSLYGIGFGPFIITNKHLFRRNNGTLVVQSLHGVFKVKDTTTLQQHLVDGRDMIIIRMPKDFPPFPQKLKFREPQREERICLVTTNFQTKSMSSMVSDTSCTFPSGDGIFWKHWIQTKDGQCGSPLVSTRDGFIVGIHSASNFTNTNNYFTSVPKNFMELLTNQEAQQWVSGWRLNADSVLWGGHKVFMVKPEEPFQPVKEATQL

Variants of: B1
Test: raw area under fraction-flipped curve 0-4 h after induction (AUC4h, not background-subtracted), DNA-recorder readout of cleavage of the substrate (dimensionless); higher = more cleavage of the substrate by the protease variant
Conditions: temperature: 34 °C; time window: 0-4 h after rhamnose induction
Description: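 In vivo DNA recorder in E. coli TOP10(DE3) ΔrhaA at 34 °C. Each TEVp single-site mutant (parent TEVp 0) is paired with a single-site variant of the 7-mer TEVs (canonical ENLYFQ|S). The substrate sits between flexible linkers in a Bxb1-sfGFP-TEVs-SsrA fusion, so cleavage stabilises Bxb1 and speeds flipping of a recombination array, read by NGS. The value is the raw area under the fraction-flipped curve over 0-4 h after rhamnose induction (AUC4h), with ≥20 reads per time point. It is not background-subtracted; inactive controls average about 0.047.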
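Further: Bxb1 expression induced with 0.2% (w/v) L-rhamnose at OD600 near 0.5, cultures sampled hourly, flipped fraction per protease–substrate barcode pair counted by paired-end Illumina sequencing.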

| Variant | area with substrate ENLYFQA | area with substrate ENLYFQC | area with substrate ENLYFQD | area with substrate ENLYFQE | area with substrate ENLYFQI | area with substrate ENLYFQL | area with substrate ENLYFQM | area with substrate ENLYFQP | area with substrate ENLYFQR | area with substrate ENLYFQS | area with substrate ENLYFQT | area with substrate ENLYFQW | area with substrate ENLYFQF | area with substrate ENLYFQG | area with substrate ENLYFQH | area with substrate ENLYFQK | area with substrate ENLYFQN | area with substrate ENLYFQQ | area with substrate ENLYFQV | area with substrate ENLYFQY |
| --- | --- | --- | --- | --- | --- | --- | --- | --- | --- | --- | --- | --- | --- | --- | --- | --- | --- | --- | --- | --- |
| N172I | 0.0547 | 0.0585 | 0.03 | 0.0511 | 0.0596 | 0.0547 | 0.0601 | 0.0547 | 0.0591 | 0.0607 | 0.0653 | 0.0334 | – | – | – | – | – | – | – | – |
| E223W | 0.0583 | – | 0.0722 | – | 0.0568 | 0.0485 | 0.0758 | 0.0693 | 0.0547 | 0.0907 | 0.0709 | 0.0981 | 0.0376 | 0.0847 | 0.0747 | 0.0621 | 0.0739 | 0.0895 | 0.0535 | 0.0716 |
| S123R | 0.0944 | 0.132 | – | – | 0.0391 | 0.0656 | – | – | 0.0652 | 0.123 | 0.052 | 0.058 | – | 0.1 | – | – | – | – | – | – |
| K230H | 0.0926 | 0.14 | 0.0823 | – | 0.051 | 0.0737 | 0.047 | – | 0.0676 | 0.109 | 0.0578 | 0.0481 | 0.0741 | 0.097 | – | 0.054 | 0.0778 | – | – | 0.0584 |
| H47Q | 0.0483 | 0.0581 | 0.0544 | – | 0.0524 | 0.0617 | 0.06 | – | 0.058 | 0.0617 | 0.0569 | – | – | 0.073 | 0.0587 | 0.0666 | 0.0581 | – | – | – |
| K68D | 0.0992 | 0.112 | – | – | 0.0567 | 0.095 | 0.116 | 0.0307 | 0.0601 | 0.117 | 0.0532 | 0.0798 | 0.114 | 0.154 | – | 0.0673 | 0.0823 | – | 0.0361 | – |
| F133H | 0.101 | – | – | – | – | 0.0608 | 0.0909 | 0.0578 | 0.0787 | 0.111 | 0.0751 | 0.0977 | – | 0.0936 | – | – | – | – | – | – |
| N53F | 0.0783 | 0.0954 | – | – | 0.0541 | 0.0658 | 0.143 | – | 0.0583 | 0.0818 | 0.0684 | 0.0556 | 0.0634 | 0.0838 | 0.0697 | 0.0622 | 0.0685 | – | – | 0.0821 |
| N53Y | 0.0745 | 0.102 | – | – | – | 0.0592 | – | 0.0555 | 0.066 | 0.0758 | 0.0626 | 0.0653 | 0.0538 | 0.0739 | 0.0708 | 0.0561 | 0.0624 | – | – | 0.0568 |
| V217S | 0.0597 | 0.0693 | 0.0535 | – | – | – | 0.0719 | – | 0.0603 | 0.0683 | – | 0.059 | – | – | 0.0631 | 0.0586 | 0.0601 | – | – | 0.0663 |
| V217Y | 0.0591 | 0.0639 | 0.0575 | – | 0.0585 | – | 0.0539 | – | 0.0604 | 0.0634 | 0.0584 | 0.0494 | 0.0632 | 0.0557 | – | 0.0568 | – | – | – | 0.0623 |
| D161I | 0.06 | 0.0594 | – | – | 0.0496 | 0.0506 | 0.051 | 0.0539 | 0.0445 | 0.0541 | 0.0538 | 0.0632 | – | 0.0663 | 0.0625 | 0.0623 | – | 0.0556 | 0.0636 | 0.0391 |
| M125Q | 0.085 | 0.107 | 0.0563 | 0.0578 | 0.0621 | 0.0683 | 0.0923 | – | 0.063 | 0.103 | 0.0682 | 0.0735 | – | 0.0983 | 0.0959 | 0.0814 | 0.0812 | – | – | – |
| C131V | 0.0839 | – | – | 0.0691 | – | 0.0532 | – | – | 0.0577 | 0.102 | – | – | – | – | – | – | – | – | – | – |
| Q197A | 0.0975 | 0.0947 | – | – | 0.0325 | 0.062 | – | – | 0.0621 | 0.092 | 0.0573 | – | – | 0.0996 | 0.0732 | 0.0714 | 0.0711 | 0.0714 | – | – |
| A170H | 0.0541 | 0.0586 | – | – | 0.0537 | 0.0391 | 0.0666 | – | 0.0673 | 0.0595 | 0.061 | – | – | – | – | – | 0.0817 | – | – | – |
| F173C | 0.137 | 0.116 | – | – | 0.059 | – | 0.0672 | – | 0.0581 | 0.089 | 0.0614 | 0.0613 | 0.0588 | 0.0306 | – | – | 0.0572 | – | – | 0.0499 |
| P14L | 0.111 | 0.175 | – | – | 0.0512 | 0.0872 | 0.0882 | – | 0.0617 | 0.105 | 0.0582 | – | 0.0673 | 0.0353 | 0.0759 | 0.0692 | 0.0748 | – | – | 0.0863 |
| I145M | 0.0672 | 0.0912 | 0.0691 | – | 0.0507 | 0.0699 | 0.0513 | – | 0.0494 | 0.0767 | 0.0652 | 0.0621 | 0.0688 | – | 0.0789 | 0.0435 | 0.0709 | 0.0781 | 0.0464 | 0.0575 |
| V229T | 0.0864 | 0.108 | – | – | 0.0496 | 0.0762 | 0.0905 | – | – | 0.0888 | – | 0.0507 | – | – | – | – | – | – | – | – |
| E108F | 0.0582 | 0.0559 | – | – | – | – | 0.057 | – | 0.0697 | 0.0608 | 0.0454 | – | – | 0.0505 | – | 0.0489 | – | – | – | – |
| R87F | 0.0824 | 0.0977 | 0.0881 | – | 0.0583 | 0.0642 | 0.0752 | – | 0.0452 | 0.0839 | 0.0783 | 0.0558 | 0.0357 | 0.0789 | 0.0639 | 0.0623 | 0.0657 | 0.077 | 0.0556 | 0.0642 |
| V58H | 0.0388 | 0.0676 | – | – | 0.0507 | – | 0.0545 | – | 0.0384 | 0.0507 | – | – | – | – | – | – | – | – | – | – |
| S135C | 0.0739 | 0.074 | – | 0.0669 | 0.059 | 0.0587 | 0.0606 | 0.0612 | 0.0629 | 0.0796 | 0.0581 | 0.0573 | – | 0.077 | 0.072 | 0.0489 | – | 0.0614 | 0.0589 | 0.0505 |
| N175H | 0.0712 | – | – | – | – | – | – | – | – | 0.0959 | 0.0704 | 0.0635 | – | – | – | 0.0574 | 0.0741 | – | – | 0.06 |
| S182Y | 0.0521 | 0.0531 | 0.0558 | 0.0499 | – | – | 0.0668 | – | 0.0616 | 0.0577 | 0.0567 | 0.0491 | – | 0.0571 | 0.0454 | – | 0.0421 | – | 0.0511 | 0.0684 |
| D91N | 0.113 | – | – | – | – | – | – | – | – | 0.0973 | – | 0.0625 | 0.0886 | – | – | – | – | 0.0662 | 0.0645 | – |
| L77Q | 0.0697 | 0.042 | 0.0625 | – | 0.0426 | 0.0564 | – | 0.0496 | 0.0437 | 0.0644 | 0.0636 | 0.0705 | – | 0.0639 | 0.0397 | 0.0595 | – | 0.0587 | 0.0511 | – |
| D137I | 0.135 | 0.118 | – | – | 0.0595 | 0.0682 | 0.0873 | – | 0.0519 | 0.102 | 0.0592 | 0.0674 | 0.0759 | 0.102 | 0.0793 | – | 0.0643 | 0.0946 | – | 0.0601 |
